Results as given in PubChem BioAssay AID1963576 (National Center for Advancing Translational Sciences (NCATS), 2024).
The campaign covered roughly 46,000 compounds. About 60 (0.1%) were called active. Not shown: some 3% with an inconclusive outcome. Calls follow the shape of the dose curve; as a rule, active = well fitted inhibition curve with a large enough effect; inconclusive = small, poorly fitted or top-dose-only effect; inactive = no such curve, though single readings can be large or run the other way. Some of the results follow.

Experiment: Primary qHTS assay for Inhibitors of ovarian cancer metastasis using an organotypic tumor microenvironment (TME) model. Also: nearly all actives have a fitted effect of over 65% in size.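 As to activity change, negative = inhibition: plate controls were DMSO wells for no effect and tomatine positive control wells for full effect.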
Conditions: SKOV3ip1-GFP adhesion/invasion on 3D omental model, fluorescence; series mostly up to 45.8 µM; activity change, negative = inhibition: at the top concentration
How it was run: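 Primary human omental fibroblast/mesothelial 3D culture pre-formed 48 h. SKOV3ip1-GFP cells added with compounds (0.36-46 umol/L), incubated 2 h RT/16 h 37 C, fixed; GFP cells quantified at 488/509 nm.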

Activity change, negative = inhibition, inactive:
CCCCOc1ccc(C(=O)NCCc2sc3nc(-c4ccc(OC)cc4)nn3c2C)cc1 36.2%
CCCCOc1ccc(C(=O)NCc2cn3cccc(C)c3n2)cc1 0.334%
Cc1ccc(C(=O)Nc2ccc(C(=O)O)cc2)cc1S(=O)(=O)N1CCC(C)CC1 -9.29%
Cc1c(C(=O)Nc2ccc(F)c(Cl)c2)sc2nc3n(c(=O)c12)CCC3 -0.143%
COc1ccc(NC(=O)c2ccco2)cc1NC(=O)c1ccc(C#N)cc1F 0.146%
CCCNC(=O)c1cnn(-c2ccc(C)c(C)c2)c1C1CCN(C(=O)OC(C)(C)C)CC1 -5.51%
COc1ccccc1N1CCN(c2ncnc3c2cnn3-c2ccc(C)cc2)CC1 3.95%
CCCCCSc1nnc2c(n1)[nH]c1c(C)cccc12 0.0556%
Cc1cc(C)cc(N2CCn3c2nc2c3c(=O)n(Cc3c(F)cccc3Cl)c(=O)n2C)c1 6.58%
O=S(=O)(NCC(c1ccco1)N1CCN(c2ccccc2)CC1)c1cc(F)ccc1F (stereo not given) 10.7%
CCCOc1ccc(C(=O)N2CCC(c3nc4ccccc4s3)CC2)cc1 11.4%
O=C(C1CC1)N1CCc2cc(Br)cc(S(=O)(=O)Nc3ccc(F)c(F)c3)c21 34.5%
CC(C)(C)OC(=O)N1CCC(c2c(C(=O)NCCN3CCOCC3)cnn2-c2cccc(Cl)c2)CC1 -7.57%
O=C(Cn1c(=O)c(CNc2ccccc2)cc2cc3c(cc21)OCCO3)Nc1ccccc1Cl -6.51%
Cc1nn(C)c2c1c(C(F)(F)F)cc(=O)n2Cc1ccc(Br)cc1F -27.8%
O=c1c(S(=O)(=O)c2ccccc2)cn(Cc2ccccc2)c2cc(N3CCCC3)c(F)cc12 5.83%
CCOc1ccc(N(Cc2ccccc2)C(=O)c2nc(SC)ncc2Cl)cc1 -2.82%
Cn1c(=O)c2c(nc(CN3CCN(c4ccccc4F)CC3)n2Cc2ccc(F)cc2)n(C)c1=O 0.406%
COc1ccc(OC)c(C2CC(=O)Nc3c2c(=O)[nH]c2nc4ccccc4n32)c1 (stereo not given) 12.5%
N#Cc1ccc(NC(=O)COCc2cc(-c3ccco3)on2)cc1 -3.27%
CCOC(=O)C1CCN(CCC(=O)Nc2ccccc2OC)CC1 -5.02%
Cc1cc(C)cc(C(=O)NCCc2sc(-c3ccc(F)cc3)nc2C)c1 10.2%
Cc1cccc(NC(=O)CSc2nc3n[nH]c(C)c3c(=N)n2-c2cccc(Cl)c2)c1 6.97%
Cc1ccc(Cl)cc1NC(=O)Cn1c(=O)n(C(C)C)c(=O)c2oc3ccccc3c21 1.93%
Cc1cccc(C(C)C)c1NC(=O)c1ccc2c(c1)CCN2S(C)(=O)=O 1.55%
Cc1cccc(Nc2nnc(-c3ccc(C)c(S(=O)(=O)N4CCN(C)CC4)c3)c3ccccc23)c1 -2.42%
CC(=O)Nc1cccc(NC(=O)CSc2ccc(-c3sc(-c4ccccc4)nc3C)nn2)c1 -3.32%
O=C(O)CCc1ccc(-c2ccccc2)n1-c1ccc(C(=O)O)cc1 2.85%
CCn1c(CN2CCC(C)CC2)nc2cc(NC(=O)c3ccc([N+](=O)[O-])cc3)ccc21 -18.3%
CC(C)CCNC(=O)C(=O)Nc1c2c(nn1-c1ccc(Cl)cc1)CSC2 -11.4%
COc1ccc(-c2cc(C(=O)NCCc3ccc(OC)c(OC)c3)c3c(-c4ccc(F)cc4)[nH]nc3n2)cc1 4.2%
Cc1cc(C)n(-c2nc(C)c(C)c(=O)n2CC(=O)Nc2cccc([N+](=O)[O-])c2)n1 13.2%
CCOC(=O)c1ccc(NC(=O)Cn2c3ncccc3c(=O)n2-c2ccc(C)c(C)c2)cc1 0.287%
COc1ccccc1NC(=O)C1CCCN(c2ncnc3onc(-c4ccc(F)cc4)c23)C1 (stereo not given) -0.673%
CCC(C)NC(=O)c1c(C)oc2nc(C)nc(N3CCOCC3)c12 (stereo not given) 4.9%
CCOC(=O)C(C)Sc1nc(-c2ccccc2)ccc1C#N (stereo not given) -1.16%
COc1cccc(NC(=O)C2CCN(S(=O)(=O)c3ccc4[nH]c5c(c4c3)CCCCC5)CC2)c1 1.62%
COC(=O)c1ccccc1NC(=O)c1nn(-c2ccc(OC)cc2)c(=O)c2c1c1ccccc1n2C -14.5%
COc1cccc(NC(=O)c2oc3ccc(S(=O)(=O)N4CCCCCC4)cc3c2C)c1 18.8%
CCOc1ccc(S(=O)(=O)N2CCC(c3ccncc3)CC2)cc1 2.85%
Cc1cc(C)n2nc(CNS(=O)(=O)c3ccccc3)nc2n1 2.26%
COc1ccc(S(=O)(=O)NCC(c2ccc(N(C)C)cc2)N2CCc3ccccc32)cc1F (stereo not given) -15.3%
O=C(O)c1c(Cl)c(Cl)c(Cl)c(Cl)c1-c1c2cc(I)c(=O)c(I)c-2oc2c(I)c(O)c(I)cc12 -4.96%
CCCNC(=O)N1[C@H](c2cccs2)[C@@H](C)C(=O)[C@@H](C)[C@@H]1c1cccs1 -0.999%
COc1cccc(N2CCN(c3ncnc4c3c(-c3ccccc3)cn4-c3cccc(C(F)(F)F)c3)CC2)c1 5.2%
Cc1cc(Nc2ccc(Br)c(C)c2)n2nc(-c3ccco3)nc2n1 6.21%
CN[C@H](CC(C)C)C(=O)N[C@H]1C(=O)N[C@@H](CC(N)=O)C(=O)N[C@@H]2C(=O)N[C@H]3C(=O)N[C@H](C(=O)N[C@H](C(=O)O)c4cc(O)cc(O)c4-c4cc3ccc4O)[C@H](O)c3ccc(c(Cl)c3)Oc3cc2cc(c3O[C@@H]2O[C@H](CO)[C@@H](O)[C@H](O)[C@@H]2O[C@H]2C[C@](C)(N)[C@H](O)[C@H](C)O2)Oc2ccc(cc2Cl)[C@H]1O -0.904%

outcome, inactive:
Cc1cccc(-c2nc3scc(CCNS(=O)(=O)c4ccc(F)c(C(F)(F)F)c4)n3n2)c1
COc1ccc(Cl)cc1NC(=O)CSc1nc2c(oc3ccccc32)c(=O)n1Cc1ccco1
Fc1ccccc1N1CCN(c2ncnc3onc(-c4ccc(Cl)cc4)c23)CC1
CCOC(=O)c1ccccc1NC(=O)CN1C(=O)CC(c2ccccc2)Sc2ccccc21 (stereo not given)
O=C(NCCc1ccccc1)C1CCN(c2nc3ccccc3nc2C(F)(F)F)CC1
COCCn1c(SCC(=O)c2ccc(C)cc2)nc2cc(C(=O)NC3CCCC3)ccc2c1=O
CCc1ccc(/C=C(/C#N)c2nc(-c3ccc(C)cc3)cs2)cc1
CCc1ccc2oc(-c3ccc(C)c(NC(=O)Cc4ccccc4)c3)nc2c1
Cc1nn2c(=O)cc(COC(=O)c3cccc(NC(=O)c4ccc(F)cc4)c3)nc2s1
Cc1ccc(-n2nc(-c3ccccc3)c3cnc4cc5c(cc4c32)OCO5)cc1C
Cc1ccc(NC(=O)c2ccc3snnc3c2)cc1C
CCOC(=O)c1ccccc1NC(=O)COC(=O)CC(C)(C)CC1=NS(=O)(=O)c2ccccc2N1
CCN(CC)C(=O)Cn1c(=O)n(CCc2ccccc2)c(=O)c2ccccc21
